Measurements from PubChem BioAssay AID485344 (National Center for Advancing Translational Sciences (NCATS), 2010).
Out of some 340,000 compounds screened, about 6,900 (2%) were called active. Cut-off read from the data, not from the text of the source: active = inhibition above about 30%; inactive = below that, where a call was filed. The list shows a part of the results, in another mix than the full data. Entries without a call were filed so in the source.

Each molecule was assayed against D(2) dopamine receptor (Homo sapiens) (UniProt P14416) (assay: HTS Assay for Allosteric Antagonists of the Human D2 Dopamine Receptor: Primary Screen for Antagonists). Settings: HEK293 TREx D2 cells, calcium flux, dopamine EC80; at 10 µM; stronger effect = higher value.
Method in brief: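 Calcium flux kinetic readout in an inducible HEK293 TREx D2 line plated overnight at 30 C. After 180 s compound exposure, an EC80 dopamine challenge follows with another 180 s kinetic read to detect antagonism.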
Note: 0% is about no effect.

UniProt P14416, sequence (P14416 whole entry, looked up): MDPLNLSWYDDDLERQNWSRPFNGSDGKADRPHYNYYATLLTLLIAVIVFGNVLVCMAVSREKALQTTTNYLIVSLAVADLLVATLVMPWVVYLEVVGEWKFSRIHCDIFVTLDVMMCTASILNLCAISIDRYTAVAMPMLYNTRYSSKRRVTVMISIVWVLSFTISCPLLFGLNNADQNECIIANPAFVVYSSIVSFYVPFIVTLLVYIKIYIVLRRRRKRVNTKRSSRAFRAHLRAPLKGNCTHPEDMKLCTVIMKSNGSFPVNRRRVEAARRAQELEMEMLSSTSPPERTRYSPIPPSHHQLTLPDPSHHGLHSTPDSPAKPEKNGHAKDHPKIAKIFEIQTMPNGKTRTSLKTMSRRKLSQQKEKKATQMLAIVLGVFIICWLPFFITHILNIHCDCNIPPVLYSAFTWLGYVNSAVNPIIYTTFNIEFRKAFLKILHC

Row | SMILES | inhibition
1 | Cc1ccc(C(=O)Nc2cc(-c3nc4ncccc4o3)ccc2C)c(C)c1 | 3.43%
2 | COCc1nn2cc(-c3ccc(C)cc3)nc2s1 | -5.09%
3 | CCc1ccc2oc(C(=O)Nc3cccc(Cl)c3C)cc(=O)c2c1 | -11.1%
4 | COc1ccc(NC(=O)CCCN2C(=O)C(c3ccccc3)Oc3cccnc32)c(OC)c1 (stereo unspecified) | 10.1%
5 | CC(C)CCN(Cc1ccco1)C(=O)c1cc2c(s1)-c1ccccc1OC2 | -17.1%
6 | CN(C)S(=O)(=O)c1cccc(NC(=O)c2ccc(OC(F)(F)F)cc2)c1 | active: 46.3%
7 | O=C(COc1ccccc1)OCc1cc(=O)n2nc(C3CC3)sc2n1 | 7.63%
8 | Cc1cc2c(cc1NC(=O)c1ccccc1C)n(C)c(=O)c(=O)n2C | -10.7%
9 | CCC(Cc1ccccc1)NC(=O)CN1C(=O)COc2ccc(S(=O)(=O)N3CCCCCC3)cc21 (stereo unspecified) | -4.34%
10 | COc1ccc(CCNC(=O)CCCn2c(=O)c3cccn3c3ccccc32)cc1OC | -4.43%
11 | CCOC(=O)C1=C(O)C(=O)N(c2ccccc2)C1c1cccc([N+](=O)[O-])c1 (stereo unspecified) | active: 33%
12 | O=C(Cn1c(-c2ccco2)nc2ccccc21)N1CCCCC1 | active: 46.5%
13 | O=C(CCn1c(=O)sc2ccccc21)NCc1cccs1 | active: 32.2%
14 | O=C(OCc1nnc(-c2ccccc2)o1)c1cc(S(=O)(=O)N2CCOCC2)c(Cl)cc1Cl | active: 37.5%
15 | CCOCCCNC(=O)C1CCN(C(=O)c2cc3sccc3n2C)CC1 | -6.1%
16 | Cc1cc(C)n(-c2nnc(C)n2NC(=O)c2cccc(Cl)c2)n1 | active: 46.8%
17 | CCOc1ccccc1CNCCNC(=O)c1nonc1N | -8.62%
18 | Cc1ccccc1Nc1sc(C(=O)c2ccccc2)c(N)c1C(=O)NCc1ccc(Cl)cc1 | -17.5%
19 | Cc1ccc2c(c1)c1c(c(=O)n(-c3ccccc3C)c(=O)n1CC(=O)N1CCCC1)n2C | -7.02%
20 | Cc1ccc2ncc3c(-c4ccc(F)cc4)nn(-c4cccc(F)c4)c3c2c1 | 2.16%
21 | COc1cc(OC)c(NC(=O)CC(c2cccs2)N2Cc3ccccc3C2=O)cc1Cl (stereo unspecified) | 7.55%
22 | Cc1ccc(Cn2cc(C(=O)c3ccc(F)cc3)c(=O)c3cc4c(cc32)OCCO4)cc1 | -24.6%
23 | CCc1ccccc1NC(=O)CSCc1cnn(-c2ccccc2)c1-n1cccc1 | -19.8%
24 | COc1cccc(C(=O)N2c3nc(-c4ccco4)nn3C3(CCCCC3)[C@@H]3CCCC[C@@H]32)c1 | -5.09%

Row | SMILES | inhibition
25 | CCc1nn(C(C)C(=O)N2CCN(c3cccc(C(F)(F)F)c3)CC2)c(=O)c2cc3occc3n12 (stereo unspecified) | -2.39%
26 | CC(CN(C)C)CN1c2ccccc2Sc2ccccc21 (stereo unspecified) | active: 76.1%
27 | COc1cc(OC)cc(-c2nc3nc(C)c(CCC(=O)Nc4ccc(F)cc4F)c(C)n3n2)c1 | -14.7%
28 | CCCNC(=O)c1c(C)nn(-c2cccc(C)c2)c1-n1cccc1 | -1.76%
29 | Cc1ccccc1N1CCN(CCCOc2ccc3c(C)cc(=O)oc3c2)CC1 | active: 109%
30 | CCOC(=O)C1CCN(S(=O)(=O)c2cc3c4c(c2)CC(=O)N4CCC3)CC1 | -25%
31 | COc1ccc(CCNC(=S)NC2CCN(Cc3ccccc3)CC2)cc1 | active: 71.2%
32 | CN(C)S(=O)(=O)n1cc(/C=C(\NC(=O)c2ccccc2Cl)C(=O)NCCCn2ccnc2)c2ccccc21 | -4%
33 | O=C(NCCc1ccccc1)C1(c2cccs2)CCOCC1 | -20.3%
34 | CCN(CC)CCNC(=O)c1nn(-c2ccc(OC)c(Cl)c2)c(=O)c2c1c1ccccc1n2C | -6.79%
35 | O=C(CSc1nc2c(c(=O)[nH]1)CN(Cc1ccc(F)cc1)CC2)Nc1ccccc1Cl | 16.3%
36 | O=C(NCCc1ccccc1Cl)c1ccc2c(c1)nc1n2CCOC1 | -12.3%
37 | O=C(NC1CC2CCCC(C1)N2Cc1ccccc1)c1cccc(Cl)c1 (stereo unspecified) | active: 90.4%
38 | Cc1ccc(C(=O)n2nc(-c3ccco3)nc2NCc2cccs2)cc1 | -0.365%
39 | CCCn1nc(C(=O)Nc2ccc3nc(C)sc3c2)c2ccccc2c1=O | active: 31%
40 | C=CCn1c(SCC(=O)Nc2ccc(C(=O)OCC)cc2)nnc1-c1sc(N)nc1C | active: 31.4%
41 | Cc1nc(N2CCOCC2)c2c(C(=O)NCCc3ccccc3)c(C)oc2n1 | -7.14%
42 | CCCCn1cc2c(c1-c1ccccc1Br)c(=O)n(C)c(=O)n2C | 9.79%
43 | Cc1ccc(C(=O)Nc2nc3ccc(S(=O)(=O)N4CCCC4)cc3s2)cc1 | 3.95%
44 | Cc1ccc(-c2nnc(SCC(=O)NC3CCCC3)nc2-c2ccc(C)cc2)cc1 | 1.76%
45 | CCOc1ccc(NC(=O)CCC(=O)N2CC(C)Oc3ccc(C)cc32)cc1 (stereo unspecified) | 7.21%
46 | COc1ccc(CN2C(=O)c3oc4ccc(F)cc4c(=O)c3C2c2ccc(O)cc2)cc1 (stereo unspecified) | 5.41%
47 | O=C(Nc1ccc(F)cc1F)C(Cc1ccccc1)N1Cc2ccccc2C1=O (stereo unspecified) | -22.7%
48 | COc1cccc(-n2c(-c3ccc(Cl)cc3)cc3c2CC(C)(C)CC3=O)c1 | -16.3%

Row | SMILES | inhibition
49 | COc1ccc(C)cc1NC(=O)C1CCN(S(=O)(=O)c2c(C)noc2/C=C/c2ccco2)CC1 | 13.2%
50 | O=C(CCC(=O)N1CC2CCCN2c2ccccc21)NCc1cccc(Cl)c1 (stereo unspecified) | 6.37%
51 | Nc1c(C(=O)NCc2ccc(Cl)cc2Cl)nnn1Cc1ccc(Br)cc1 | 10.8%
52 | COc1ccc(OCC(=O)Nc2cc(-c3ccccc3F)nn2-c2ccccc2)cc1 | -27%
53 | Cc1ccc(S(=O)(=O)NCC2CCC(C(=O)NCc3ccc(F)cc3)CC2)cc1 (stereo unspecified) | 5.43%
54 | CCc1ccc(CNC(=O)c2cc3cc(S(=O)(=O)N4CCCCC4)ccc3n2C)cc1 | 17%
55 | COC(=O)CCNCCSc1nnc(-c2ccco2)n1Cc1ccccc1 | active: 32.9%
56 | COc1cccc(-c2cn3c(n2)sc2cc(C(=O)NCCCc4ccccc4)ccc23)c1 | -2.06%
57 | CSc1ccc(CNC(=O)C2CCCN(S(=O)(=O)N(C)c3ccc(F)cc3)C2)cc1 (stereo unspecified) | 0.869%
58 | CCOc1ccc(CCNC(=O)CCCn2c(=O)c3cccn3c3cccnc32)cc1OCC | 4.52%
59 | CCc1ccc2c(c1)c(=O)c(S(=O)(=O)c1ccc(Cl)cc1)cn2CC | 8.51%
60 | O=C(CC1(O)C(=O)N(CCc2ccccc2)c2ccc(Br)cc21)c1ccc(F)cc1 (stereo unspecified) | 8.4%
61 | Cc1nn(Cc2ccc(Cl)c(Cl)c2)c(C)c1NC(=O)c1noc2c1CCc1ccccc1-2 | 24.2%
62 | COc1cccc(CNCCSc2nnnn2C)c1OCc1ccccc1 | 2.4%
63 | CCc1cc(C(=O)N2CCN(S(=O)(=O)c3ccc(Cl)cc3)CC2)sc1C | active: 38.5%
64 | COC(=O)CC1Oc2ccccc2-n2cc(-c3ccc(C)cc3)nc21 (stereo unspecified) | 2.01%
65 | O=C(Cc1ccccc1)Nc1sc2c(c1C(=O)Nc1ccccc1)CCCCC2 | -12.9%
66 | COc1cc(C2CC(=O)Nc3c2c(C)nn3-c2nc(C)cc(C)n2)cc(OC)c1O (stereo unspecified) | -4.68%
67 | Cc1ccc(CSc2nnc(-n3c(=O)c(C#N)cc4c(=O)n5cccc(C)c5nc43)s2)cc1 | 0.489%
68 | COc1cccc(-c2nn3c(=O)cc(CN4CCN(S(=O)(=O)c5ccc(C)cc5)CC4)nc3s2)c1 | -5.21%
69 | CSc1nc(=O)c2c(n1C)NC(=O)CC2c1ccccc1OC(C)C (stereo unspecified) | -6.12%
70 | COc1ccc(-c2nc3ccccc3n3c(-c4cccc(C)c4)c4c(=O)n(C)c(=O)n(C)c4c23)cc1 | -5.25%
71 | CNC(=S)NC1CC2CCCC(C1)N2Cc1ccc(C)cc1 (stereo unspecified) | active: 81.4%
72 | COCCCn1c(=N)c(C(=O)NCC2CCCO2)cc2c(=O)n3cc(C)ccc3nc21 (stereo unspecified) | -0.51%

Row | SMILES | inhibition
73 | Cc1ccc(Nc2c(-c3ccc(N(C)C)cc3)nc3nc[nH]n23)cc1 | -23.6%
74 | Cc1ccc2c(=O)cc(C(=O)Nc3ccc(S(=O)(=O)N4CCC(C)CC4)cc3)oc2c1C | -9.79%
75 | CC(=O)c1ccc(S(=O)(=O)Nc2ccc(-c3ccc(N4CCCCCC4)nn3)cc2)cc1 | -20.9%
76 | COC(=O)c1ccc(CN2CCc3ccc(NC(=O)c4ccncc4)cc3C2)cc1 | active: 34.6%
77 | Cc1ccc(-n2ncc(C(=O)NCCc3ccccc3)c2C2CCN(C(=O)OC(C)(C)C)CC2)c(C)c1 | 2.6%
78 | COc1ccccc1C(=O)N(CCN(C)C)c1nc2cc(C)cc(C)c2s1 | active: 38.1%
79 | COc1cccc(NC(=O)Cn2c(=O)cc(C)c3c(C)nn(-c4cccc(F)c4)c32)c1 | 9.03%
80 | CC1CCCCN1C(=O)Cn1c(=O)n(-c2ccc(Cl)cc2)c(=O)c2c3c(sc21)CCC3 (stereo unspecified) | 10.4%
81 | CCN(CC)c1nc2c(-c3cccc(Br)c3)nnn2c2ccccc12 | -28.1%
82 | COc1ccc(CNC(=O)c2ccc(NC(=O)N3CC4CCCN4c4ccccc43)cc2)cc1 (stereo unspecified) | -9.17%
83 | CC(C)n1cnc2c(N(C)c3ccccc3)nc(N(CCN(C)C)Cc3ccccc3)nc21 | active: 33.8%
84 | COc1cccc(NC(=O)C2CCN(S(=O)(=O)c3cccc4nonc34)CC2)c1 | -2.34%
85 | COc1cc(C(=O)OCc2cc(=O)n3nc(C4CCCCC4)sc3n2)cc(OC)c1OC | 22.4%
86 | CCOC(=O)c1cc(C)n(CC2CCC(C(=O)Nc3ccc(C(C)=O)cc3)CC2)c1C (stereo unspecified) | -12.3%
87 | COc1ccc(N2CCN(C(=O)c3cccc(-n4c(C)nc5cccnc54)c3)CC2)cc1 | -1.52%
88 | COc1cc2cc(CNc3ccccc3)c(=O)n(CC(=O)Nc3ccccc3)c2cc1OC | 1.79%
89 | CCCNS(=O)(=O)c1ccc2nc(NC(=O)c3ccc(F)cc3)sc2c1 | 7.19%
90 | Cc1ccc2nc(N3CCN(c4ccccc4)CC3)c3nnnn3c2c1 | 1.04%
91 | O=C(NCCC1=CCCCC1)c1ccc2c(c1)N(Cc1ccccc1F)C(=O)c1ccccc1S2=O (stereo unspecified) | -11.4%
92 | CCc1cccc(-n2c(=O)c3cccnc3n2CC(=O)NCc2ccccc2)c1 | -4.55%
93 | CCn1nnc2cc(C(=O)Nc3ccc(Cl)cc3C)ccc21 | 5.82%
94 | Cc1nc(-c2ccc(S(=O)(=O)Nc3ccc(C#N)cc3)cc2)co1 | 12.6%
95 | COC(=O)c1ccc(NC(=O)CSc2nc(C)cc(C)c2C(=O)Nc2ccccc2)cc1 | -16.1%
96 | O=C(O)c1ccc(N2CCCS2(=O)=O)cc1 | active: 34.3%
